According to the supplement of paper PMC3334620:
Over roughly 33,000 sequences, “E-score (-0.5 to 0.5)” has its median near -0.012; the highest 2% begin near 0.29. The list shows a part of the results.

What follows are sequences tested against T1, Ybr033w (UniProt P38073) (assay: PBM E-score (8-mer binding enrichment) (E-score (-0.5 to 0.5)); higher = stronger / more preferred TF binding; most listed sequences are background and not binding sites). Settings: protein concentration: 200 nM; construct: GST-full length.
T1 sequence: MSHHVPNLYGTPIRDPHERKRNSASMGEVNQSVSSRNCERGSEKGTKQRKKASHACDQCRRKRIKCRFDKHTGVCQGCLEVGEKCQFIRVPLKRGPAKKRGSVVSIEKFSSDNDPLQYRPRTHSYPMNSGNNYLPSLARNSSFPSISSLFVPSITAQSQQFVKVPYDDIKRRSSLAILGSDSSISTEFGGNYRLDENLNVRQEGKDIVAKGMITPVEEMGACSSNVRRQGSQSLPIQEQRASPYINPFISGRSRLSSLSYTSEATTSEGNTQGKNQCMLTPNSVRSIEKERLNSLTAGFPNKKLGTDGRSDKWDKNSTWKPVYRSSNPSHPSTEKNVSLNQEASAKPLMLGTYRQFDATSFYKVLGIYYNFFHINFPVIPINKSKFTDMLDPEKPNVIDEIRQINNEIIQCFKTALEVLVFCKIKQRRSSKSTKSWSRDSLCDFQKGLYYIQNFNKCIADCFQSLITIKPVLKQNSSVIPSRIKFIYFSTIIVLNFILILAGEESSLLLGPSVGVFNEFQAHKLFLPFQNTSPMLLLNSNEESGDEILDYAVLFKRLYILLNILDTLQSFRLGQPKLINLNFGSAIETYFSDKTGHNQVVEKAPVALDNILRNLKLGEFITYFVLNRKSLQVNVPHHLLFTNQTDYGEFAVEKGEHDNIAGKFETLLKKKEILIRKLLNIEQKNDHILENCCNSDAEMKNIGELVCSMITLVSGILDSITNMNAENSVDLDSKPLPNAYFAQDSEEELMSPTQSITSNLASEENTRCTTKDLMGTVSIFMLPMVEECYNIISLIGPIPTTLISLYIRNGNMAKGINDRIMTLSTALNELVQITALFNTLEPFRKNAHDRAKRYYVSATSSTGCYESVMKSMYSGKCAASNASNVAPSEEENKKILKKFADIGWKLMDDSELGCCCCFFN
Description: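 Universal 'all 10-mer' protein binding microarrays (Agilent AMADID 015681) probed with GST-tagged S. cerevisiae TFs (full-length or DBD) made by in vitro transcription/translation (PURExpress), about 100-200 nM. Bound TF was detected with fluorescent anti-GST. Each ungapped 8-mer (which stands for itself and its reverse complement) is scored by the PBM enrichment score (E-score), a modified Wilcoxon-Mann-Whitney statistic from -0.5 to +0.5, computed with the Universal PBM Analysis Suite. Scale: above 0.35 generally sequence-specific binding.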

Which “PBM E-score” value does the source give for GACATATA here?
The value was 0.185.

For TCAAACGA, which “PBM E-score” value is on record?
Its value is 0.134.

How did the “PBM E-score” value turn out when CACGGACA was run?
Its value is -0.164.

Which “PBM E-score” value does the source give for TACTGCGA here?
The value was 0.0219.

Which “PBM E-score” value does the source give for AGGCCCCT here?
The value was -0.39.

CATTTTAC was tested. Which “PBM E-score” value did it give?
Its value is 0.298.

With ATTCATTC as the sequence, how does the “PBM E-score” value read?
The value was 0.277.

Which “PBM E-score” value does the source give for AGACATCC here?
Its value is -2e-05.

How did the “PBM E-score” value turn out when AGCCATAA was run?
Its value is -0.0065.

Which “PBM E-score” value does the source give for GAGACTTA here?
Its value is -0.107.

How did the “PBM E-score” value turn out when AAGCGTAA was run?
The value was 0.103.

For CTCCATGA, which “PBM E-score” value is on record?
The value was 0.0454.

GTAAGTAC was tested. Which “PBM E-score” value did it give?
Its value is -0.0356.

How did the “PBM E-score” value turn out when CTTATGCA was run?
Its value is 0.164.

Which “PBM E-score” value does the source give for AGATTACC here?
Its value is 0.117.

For ACCAAATC, which “PBM E-score” value is on record?
The value was 0.105.

AGGTTCTC was tested. Which “PBM E-score” value did it give?
The value was -0.112.

For CTTCGGCA, which “PBM E-score” value is on record?
Its value is -0.057.

GCCTGCTA was tested. Which “PBM E-score” value did it give?
Its value is -0.109.

How did the “PBM E-score” value turn out when CCACCCAC was run?
The value was -0.155.

How did the “PBM E-score” value turn out when AGTGAGGC was run?
Its value is -0.0821.

How did the “PBM E-score” value turn out when AGCACGAA was run?
Its value is 0.134.

With ATCTGGCC as the sequence, how does the “PBM E-score” value read?
The value was -0.145.

Which “PBM E-score” value does the source give for GTCTTGTA here?
The value was -0.116.

Which “PBM E-score” value does the source give for ATACCGCC here?
The value was -0.0566.

Which “PBM E-score” value does the source give for TAATTGCA here?
Its value is 0.187.

Which “PBM E-score” value does the source give for GTCTAGAC here?
Its value is -0.252.

With CCTCCCAC as the sequence, how does the “PBM E-score” value read?
The value was -0.188.

For TAATGGTA, which “PBM E-score” value is on record?
The value was 0.136.

Which “PBM E-score” value does the source give for TAGTAACA here?
The value was 0.141.

AAATTGTA was tested. Which “PBM E-score” value did it give?
Its value is 0.22.

With GCAGCTTA as the sequence, how does the “PBM E-score” value read?
The value was -0.12.

CCCCAAGA was tested. Which “PBM E-score” value did it give?
Its value is -0.0572.

ACGAGTTA was tested. Which “PBM E-score” value did it give?
The value was 0.213.

With ATTGTATG as the sequence, how does the “PBM E-score” value read?
The value was 0.14.

How did the “PBM E-score” value turn out when AATGCCTC was run?
The value was -0.102.

For CAGCCGTC, which “PBM E-score” value is on record?
The value was -0.0893.

How did the “PBM E-score” value turn out when CGCTATTC was run?
The value was 0.177.

How did the “PBM E-score” value turn out when GCAGCCTA was run?
The value was -0.0605.

Which “PBM E-score” value does the source give for GTGCATTA here?
Its value is 0.129.

For TGTATACA, which “PBM E-score” value is on record?
The value was 0.341.

CGAATCCA was tested. Which “PBM E-score” value did it give?
The value was 0.0137.

Which “PBM E-score” value does the source give for ATTTAAGC here?
Its value is 0.173.

For ACACCCAG, which “PBM E-score” value is on record?
Its value is -0.126.

TCCCTTCA was tested. Which “PBM E-score” value did it give?
The value was -0.122.

For AACATCGG, which “PBM E-score” value is on record?
Its value is -0.0458.

How did the “PBM E-score” value turn out when CTATCCAA was run?
Its value is -0.0816.

With AATAAGGG as the sequence, how does the “PBM E-score” value read?
Its value is -0.0487.

Which “PBM E-score” value does the source give for AGCATCTA here?
Its value is 0.0135.

GGCACCTA was tested. Which “PBM E-score” value did it give?
Its value is -0.213.

How did the “PBM E-score” value turn out when CACATCGG was run?
Its value is -0.0334.

AGTCGAGC was tested. Which “PBM E-score” value did it give?
The value was -0.229.

Which “PBM E-score” value does the source give for AGTAATTC here?
The value was 0.318.

With AAACATTG as the sequence, how does the “PBM E-score” value read?
The value was 0.113.

AGAGAATA was tested. Which “PBM E-score” value did it give?
Its value is 0.234.

Which “PBM E-score” value does the source give for CATATGTA here?
The value was 0.0437.

Which “PBM E-score” value does the source give for CTGTCCTC here?
The value was -0.154.

With ACGCTACG as the sequence, how does the “PBM E-score” value read?
The value was -0.12.

Which “PBM E-score” value does the source give for GACGTAGC here?
Its value is -0.147.

For CGTAAACA, which “PBM E-score” value is on record?
The value was 0.162.

For GTATGTGA, which “PBM E-score” value is on record?
The value was 0.0688.

GTCAGGTA was tested. Which “PBM E-score” value did it give?
The value was -0.0885.

With ATAGAGCA as the sequence, how does the “PBM E-score” value read?
Its value is 0.166.

Which “PBM E-score” value does the source give for CTTCATTA here?
The value was 0.291.

Which “PBM E-score” value does the source give for TAGCTTCA here?
Its value is 0.0579.

For CGACATGA, which “PBM E-score” value is on record?
The value was -0.0827.

Which “PBM E-score” value does the source give for GGACCAAC here?
The value was -0.182.

For AGCTGACG, which “PBM E-score” value is on record?
Its value is -0.119.

Which “PBM E-score” value does the source give for ATATTCTA here?
The value was 0.217.

For AAATGGGC, which “PBM E-score” value is on record?
The value was -0.0811.

With CGAGGTAC as the sequence, how does the “PBM E-score” value read?
Its value is -0.0291.

TAGTGATA was tested. Which “PBM E-score” value did it give?
The value was 0.0686.

With CTACTTCC as the sequence, how does the “PBM E-score” value read?
Its value is -0.0236.

How did the “PBM E-score” value turn out when AAACGAAC was run?
The value was 0.121.

CGCTACCA was tested. Which “PBM E-score” value did it give?
Its value is -0.151.

Which “PBM E-score” value does the source give for GGAGATGA here?
Its value is -0.121.

For TACGAGCA, which “PBM E-score” value is on record?
The value was 0.0219.

How did the “PBM E-score” value turn out when GGTGATGA was run?
The value was 0.0123.

For CAACACCA, which “PBM E-score” value is on record?
The value was -0.0261.

How did the “PBM E-score” value turn out when CATCAACC was run?
The value was 0.259.

With CATTTTGC as the sequence, how does the “PBM E-score” value read?
Its value is 0.211.

GGTCAACA was tested. Which “PBM E-score” value did it give?
Its value is 0.0823.

AGGGATAC was tested. Which “PBM E-score” value did it give?
Its value is -0.0966.

Which “PBM E-score” value does the source give for AACCAGCG here?
The value was -0.0714.

Which “PBM E-score” value does the source give for CCTTTTCC here?
Its value is -0.15.

GTTGCTGA was tested. Which “PBM E-score” value did it give?
Its value is 0.0842.

How did the “PBM E-score” value turn out when ACAAACAC was run?
The value was 0.186.

CATTAGCG was tested. Which “PBM E-score” value did it give?
The value was -0.0295.

How did the “PBM E-score” value turn out when AGCGCATG was run?
Its value is -0.226.

With AGAGATGA as the sequence, how does the “PBM E-score” value read?
The value was -0.0776.

Which “PBM E-score” value does the source give for ATGCTCAG here?
The value was 0.125.

Which “PBM E-score” value does the source give for AGCAGAAA here?
The value was 0.134.

Which “PBM E-score” value does the source give for GTTCATGA here?
Its value is 0.236.

For CTCAATAC, which “PBM E-score” value is on record?
The value was 0.12.

Which “PBM E-score” value does the source give for ACTTTGAC here?
The value was 0.127.

Which “PBM E-score” value does the source give for ATGAAGCA here?
Its value is -0.0134.

With AACCCAAC as the sequence, how does the “PBM E-score” value read?
The value was 5e-05.

ACTAGAAA was tested. Which “PBM E-score” value did it give?
The value was 0.185.

Which “PBM E-score” value does the source give for GATTCCTA here?
Its value is 0.135.

For TAGTCCCA, which “PBM E-score” value is on record?
The value was -0.126.

Which “PBM E-score” value does the source give for TGATCCAA here?
Its value is 0.165.

How did the “PBM E-score” value turn out when AAGTGGCC was run?
The value was -0.135.

How did the “PBM E-score” value turn out when ATTGCGTA was run?
The value was 0.109.

Which “PBM E-score” value does the source give for ATAGCTAT here?
The value was 0.13.

For CATCCGCG, which “PBM E-score” value is on record?
Its value is -0.117.

How did the “PBM E-score” value turn out when AATGACGT was run?
Its value is -0.102.

Which “PBM E-score” value does the source give for AAGTACTA here?
The value was 0.25.

ATAAGGAT was tested. Which “PBM E-score” value did it give?
The value was 0.297.

CGTAATGA was tested. Which “PBM E-score” value did it give?
The value was -0.0174.

With CTTGAAGA as the sequence, how does the “PBM E-score” value read?
Its value is -0.0808.
